Assay results published in the supplement of paper PMC11741623.
The list shows a part of the results. Interaction screen of human proteins with wild-type SARS-CoV-2 proteins by split-DHFR complementation in yeast, 1 µg/mL methotrexate. Value = fitness of the pair (three or more lineages) minus that of the viral protein without a human partner, on a scale set by negative (0) and fused positive (1) controls, mean of up to three cultures; higher = more likely to interact. Active = false discovery rate below 0.05 (one-sided t-test) in at least one culture. Nearly all pairs are not hits, and differences among them are mostly noise (correlation between cultures about 0.3); most hits were seen in one culture only. Human sequences are the Swiss-Prot entries looked up by gene name; the clone may be another isoform. NSP2 values were corrected by the authors for a growth advantage. Listed are human proteins with a hit and a random twelfth of the others.

What was measured:
Experiment in all cases: yeast fitness gain over the viral ORF with no human partner (scaled fitness); higher = more likely to interact
SARS-CoV-2 NSP10 = target: SARS-CoV-2 NSP10
Protocol: (§1)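 Split mouse DHFR complementation in pooled diploid yeast: human ORFeome clones carry one fragment and viral ORFs the other; barcoded lineages compete in 1 µg/mL methotrexate and fitness is read by barcode sequencing in up to three cultures.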

SARS-CoV-2 NSP12 = target: SARS-CoV-2 NSP12
Protocol: as §1

SARS-CoV-2 NSP13 = target: SARS-CoV-2 NSP13
Protocol: as §1

SARS-CoV-2 NSP2 = target: SARS-CoV-2 NSP2
Protocol: as §1

SARS-CoV-2 NSP5 = target: SARS-CoV-2 NSP5
Protocol: as §1

SARS-CoV-2 NSP6 = target: SARS-CoV-2 NSP6
Protocol: as §1

SARS-CoV-2 NSP8 = target: SARS-CoV-2 NSP8
Protocol: as §1

SARS-CoV-2 NSP9 = target: SARS-CoV-2 NSP9
Protocol: as §1

SARS-CoV-2 ORF6 = target: SARS-CoV-2 ORF6
Protocol: as §1

SARS-CoV-2 ORF9B = target: SARS-CoV-2 ORF9B
Protocol: as §1

SARS-CoV-2 ORF3B = target: SARS-CoV-2 ORF3B
Protocol: as §1

SARS-CoV-2 ORF7A = target: SARS-CoV-2 ORF7A
Protocol: as §1

SARS-CoV-2 ORF7B = target: SARS-CoV-2 ORF7B
Protocol: as §1

SARS-CoV-2 ORF8 = target: SARS-CoV-2 ORF8
Protocol: as §1

[1] = target: SARS-CoV-2 ORF9Bwu (the 73-codon ORF)
Protocol: as §1

SARS-CoV-2 S = target: SARS-CoV-2 S
Protocol: as §1

SARS-CoV-2 NSP16 = target: SARS-CoV-2 NSP16
Protocol: as §1

SARS-CoV-2 NSP7 = target: SARS-CoV-2 NSP7
Protocol: as §1

SARS-CoV-2 ORF10 = target: SARS-CoV-2 ORF10
Protocol: as §1

SARS-CoV-2 ORF3A = target: SARS-CoV-2 ORF3A
Protocol: as §1

SARS-CoV-2 NSP15 = target: SARS-CoV-2 NSP15
Protocol: as §1

Measured: yeast fitness gain

B1: SLC26A5, P58743 (protein)
chain: MDHAEENEILAATQRYYVERPIFSHPVLQERLHTKDKVPDSIADKLKQAFTCTPKKIRNIIYMFLPITKWLPAYKFKEYVLGDLVSGISTGVLQLPQGLAFAMLAAVPPIFGLYSSFYPVIMYCFLGTSRHISIGPFAVISLMIGGVAVRLVPDDIVIPGGVNATNGTEARDALRVKVAMSVTLLSGIIQFCLGVCRFGFVAIYLTEPLVRGFTTAAAVHVFTSMLKYLFGVKTKRYSGIFSVVYSTVAVLQNVKNLNVCSLGVGLMVFGLLLGGKEFNERFKEKLPAPIPLEFFAVVMGTGISAGFNLKESYNVDVVGTLPLGLLPPANPDTSLFHLVYVDAIAIAIVGFSVTISMAKTLANKHGYQVDGNQELIALGLCNSIGSLFQTFSISCSLSRSLVQEGTGGKTQLAGCLASLMILLVILATGFLFESLPQAVLSAIVIVNLKGMFMQFSDLPFFWRTSKIELTIWLTTFVSSLFLGLDYGLITAVIIALLTVIYRTQSPSYKVLGKLPETDVYIDIDAYEEVKEIPGIKIFQINAPIYYANSDLYSNALKRKTGVNPAVIMGARRKAMRKYAKEVGNANMANATVVKADAEVDGEDATKPEEEDGEVKYPPIVIKSTFPEEMQRFMPPGDNVHTVILDFTQVNFIDSVGVKTLAGIVKEYGDVGIYVYLAGCSAQVVNDLTRNRFFENPALWELLFHSIHDAVLGSQLREALAEQEASAPPSQEDLEPNATPATPEA
inactive: SARS-CoV-2 NSP10 = -0.00445 | SARS-CoV-2 NSP12 = 0.0343 | SARS-CoV-2 NSP13 = -0.169 | SARS-CoV-2 NSP2 = -0.00362 | SARS-CoV-2 NSP5 = 0.149 | SARS-CoV-2 NSP6 = -0.0825 | SARS-CoV-2 NSP8 = 0.0312 | SARS-CoV-2 NSP9 = -0.339 | SARS-CoV-2 ORF6 = -0.0446 | SARS-CoV-2 ORF9B 0.05

B2: TCEB3B, Q8IYF1 (protein)
chain: MAAGSTTLHAVEKLQVRLATKTEPKKLEKYLQKLSALPMTADILAETGIRKTVKRLRKHQHVGDFARDLAARWKKLVLVDRNTRPGPQDPEESASRQRFGEALQDQEKAWGFPENATAPRSPSHSPEHRRTARRTPPGQQRPHPRSHSREPRAERKCPRIAPADSGRYRASPTRTAPLRMPEGPEPAAPGKQPGRGHTHAAQGGPLLCPGCQGQPQGKAVVSHSKGHKSSRQEKRPLCAQGDWHSPTLIREKSCGACLREETPRMPSWASARDRQPSDFKTDKEGGQAGSGQRVPALEEAPDSHQKRPQHSHSNKKRPSLDGRDPGNGTHGLSPEEKEQLSNDRETQEGKPPTAHLDRTSVSSLSEVEEVDMAEEFEQPTLSCEKYLTYDQLRKQKKKTGKSATTALGDKQRKANESKGTRESWDSAKKLPPVQESQSERLQAAGADSAGPKTVPSHVFSELWDLSEAWMQANYDPLSDSDSMTSQAKPEALSSPKFREEAAFPGRRVNAKMPVYSGSRPACQLQVPTLRQQCAQVLRNNPDALSDVGEVPYWVLEPVLEGWRPDQLYRRKKDNHALVRETDELRRNHCFQDFKEEKPQENKTWREQYLRLPDAPEQRLRVMTTNIRSARGNNPNGREAKMICFKSVAKTPYDTSRRQEKSAGDADPENGEIKPASKPAGSSHTPSSQSSSGGGRDSSSSILRWLPEKRANPCLSSSNEHAAPAAKTRKQAAKKVAPLMAKAIRDYKRRFSRR
inactive: SARS-CoV-2 NSP10 = -0.0454 | SARS-CoV-2 NSP12 = -0.217 | SARS-CoV-2 NSP13 = -0.225 | SARS-CoV-2 NSP2 = -0.281 | SARS-CoV-2 ORF3B -0.325 | SARS-CoV-2 ORF6 = -0.125 | SARS-CoV-2 ORF7A 0.129 | SARS-CoV-2 ORF7B -0.14 | SARS-CoV-2 ORF8 = 0.0266 | SARS-CoV-2 ORF9B -0.172 | [1] -0.145 | SARS-CoV-2 S -0.226

B3: SMR3B, P02814 (protein)
chain: MKSLTWILGLWALAACFTPGESQRGPRGPYPPGPLAPPQPFGPGFVPPPPPPPYGPGRIPPPPPAPYGPGIFPPPPPQP
inactive: SARS-CoV-2 NSP10 = -0.0261 | SARS-CoV-2 NSP12 = -0.133 | SARS-CoV-2 NSP13 = -0.0268 | SARS-CoV-2 NSP16 = -0.129 | SARS-CoV-2 NSP2 = -0.18 | SARS-CoV-2 NSP5 = -0.0912 | SARS-CoV-2 NSP6 = -0.0397 | SARS-CoV-2 NSP7 = -0.0839 | SARS-CoV-2 NSP8 = 0.0579 | SARS-CoV-2 ORF10 = 0.0259 | SARS-CoV-2 ORF3A -0.0569 | SARS-CoV-2 ORF3B -0.0446 | SARS-CoV-2 ORF6 = -0.0471 | SARS-CoV-2 ORF7A -0.00139 | SARS-CoV-2 ORF7B 0.0225 | SARS-CoV-2 ORF8 = 0.0355 | SARS-CoV-2 ORF9B -0.0875 | [1] -0.228 | SARS-CoV-2 S 0.0488

B4: LGALSL, Q3ZCW2 (protein)
chain: MAGSVADSDAVVKLDDGHLNNSLSSPVQADVYFPRLIVPFCGHIKGGMRPGKKVLVMGIVDLNPESFAISLTCGDSEDPPADVAIELKAVFTDRQLLRNSCISGERGEEQSAIPYFPFIPDQPFRVEILCEHPRFRVFVDGHQLFDFYHRIQTLSAIDTIKINGDLQITKLG
inactive: SARS-CoV-2 NSP10 = -0.0243 | SARS-CoV-2 NSP12 = -0.0485 | SARS-CoV-2 NSP13 = -0.0782 | SARS-CoV-2 NSP15 = -0.13 | SARS-CoV-2 NSP2 = -0.278 | SARS-CoV-2 NSP5 = 0.0523 | SARS-CoV-2 NSP8 = 0.0743 | SARS-CoV-2 ORF6 = -0.0609 | SARS-CoV-2 ORF7A 0.123 | SARS-CoV-2 ORF8 = 0.0583 | SARS-CoV-2 ORF9B -0.122 | SARS-CoV-2 S -0.504
